# In PubChem BioAssay (Tox21):
# “And” between values parts separate entries of the source, which are not always exact repeats. Equal values may be shown once. The source made the active and inactive calls. Unless noted, the call rests on the fitted dose curve; in most records, active means well fitted curve in the direction sought with a large enough effect in the repeat runs; inconclusive means weak or mixed curves; inactive means no such curve, though single readings can be large; an effect the other way counts as inactive or inconclusive.
# Legend:
# [1] = molecular target: Androgen receptor (Homo sapiens) (UniProt P10275); assay: qHTS assay to identify small molecule antagonists of the androgen receptor (AR) signaling pathway (AID 743035; active means well fitted inhibition curve with a large enough effect in the signal ratio in the repeat runs, not every such curve was filed as active; inconclusive means weak or mixed curves, or effect the other way; inactive means no such curve, though single readings can be large or run the other way; the % refers to the signal ratio; further: potency means the concentration at half of the fitted maximal effect; on activity change, negative = inhibition: on the % scale 0 is the no-effect control and ±100 the full control effect); conditions: HEK293 AR-UAS-bla, R1881-stimulated, beta-lactamase FRET, 16 h; activity change, negative = inhibition: at 58.5 µM (top of the series) unless noted
# Sequence of UniProt P10275 (P10275 whole entry, looked up): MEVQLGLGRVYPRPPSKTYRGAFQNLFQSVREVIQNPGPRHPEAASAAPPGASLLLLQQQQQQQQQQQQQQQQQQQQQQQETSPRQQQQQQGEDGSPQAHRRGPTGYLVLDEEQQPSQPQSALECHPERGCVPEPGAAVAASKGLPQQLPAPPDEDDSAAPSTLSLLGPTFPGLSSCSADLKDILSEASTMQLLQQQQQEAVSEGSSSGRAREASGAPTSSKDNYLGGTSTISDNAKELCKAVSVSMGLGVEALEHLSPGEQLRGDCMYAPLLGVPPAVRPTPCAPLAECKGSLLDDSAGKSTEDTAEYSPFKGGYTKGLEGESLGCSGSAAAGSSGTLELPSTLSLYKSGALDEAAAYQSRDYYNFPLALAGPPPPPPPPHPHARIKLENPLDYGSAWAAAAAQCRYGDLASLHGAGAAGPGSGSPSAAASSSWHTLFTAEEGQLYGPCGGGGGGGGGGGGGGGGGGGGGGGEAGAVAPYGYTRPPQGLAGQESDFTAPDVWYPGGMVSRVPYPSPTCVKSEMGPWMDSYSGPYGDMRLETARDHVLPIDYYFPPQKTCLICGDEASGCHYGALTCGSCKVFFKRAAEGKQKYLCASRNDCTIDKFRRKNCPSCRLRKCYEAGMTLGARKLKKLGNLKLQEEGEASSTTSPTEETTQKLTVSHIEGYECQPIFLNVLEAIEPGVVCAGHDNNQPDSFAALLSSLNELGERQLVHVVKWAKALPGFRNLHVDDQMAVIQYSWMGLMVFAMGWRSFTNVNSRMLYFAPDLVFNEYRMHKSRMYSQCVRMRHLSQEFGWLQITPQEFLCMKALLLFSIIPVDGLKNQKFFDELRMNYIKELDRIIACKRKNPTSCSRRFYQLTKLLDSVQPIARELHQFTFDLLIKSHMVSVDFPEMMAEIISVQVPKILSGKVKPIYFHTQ
# In short: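 HEK293 cells stably carrying UAS-beta-lactamase reporter, 2,000/well, given compounds plus R1881 agonist and incubated 16 h at 37C. LiveBLAzer B/G FRET substrate then added for 2 h at room temperature before fluorescence reading.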
# [2] = qHTS assay to identify small molecule antagonists of the thyroid receptor (TR) signaling pathway (AID 743065); further: nearly all actives have a fitted effect of over 55% in size; further: potency means the concentration at half of the fitted maximal effect; on activity, negative = inhibition: on the % scale 0 is the no-effect control and ±100 the full control effect
# In short: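 GH3.TRE-Luc rat pituitary cells (two TREs driving luciferase) were dosed with compound, then stimulated with 1 nM T3 (final) for 23.5 h at 37 C. ONE-Glo luminescence was the read-out, with CellTiter-Fluor fluorescence as the cytotoxicity counter-screen.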
# [3] = molecular target: Estrogen receptor (Homo sapiens) (UniProt P03372); assay: qHTS assay to identify small molecule antagonists of the estrogen receptor alpha (ER-alpha) signaling pathway (AID 743069; active means well fitted curve in the direction sought with a large enough effect in the signal ratio in the repeat runs, not every such curve was filed as active; inconclusive means weak or mixed curves, or effect the other way; inactive means no such curve, though single readings can be large or run the other way; the % refers to the signal ratio; further: potency means the concentration at half of the fitted maximal effect; on activity, negative = inhibition: on the % scale 0 is the no-effect control and ±100 the full control effect); conditions: HEK293 ER-alpha-UAS-bla, beta-lactamase ratio, antagonist mode; activity, negative = inhibition: at 69.4 µM (top of the series) unless noted
# Sequence of UniProt P03372 (P03372 whole entry, looked up): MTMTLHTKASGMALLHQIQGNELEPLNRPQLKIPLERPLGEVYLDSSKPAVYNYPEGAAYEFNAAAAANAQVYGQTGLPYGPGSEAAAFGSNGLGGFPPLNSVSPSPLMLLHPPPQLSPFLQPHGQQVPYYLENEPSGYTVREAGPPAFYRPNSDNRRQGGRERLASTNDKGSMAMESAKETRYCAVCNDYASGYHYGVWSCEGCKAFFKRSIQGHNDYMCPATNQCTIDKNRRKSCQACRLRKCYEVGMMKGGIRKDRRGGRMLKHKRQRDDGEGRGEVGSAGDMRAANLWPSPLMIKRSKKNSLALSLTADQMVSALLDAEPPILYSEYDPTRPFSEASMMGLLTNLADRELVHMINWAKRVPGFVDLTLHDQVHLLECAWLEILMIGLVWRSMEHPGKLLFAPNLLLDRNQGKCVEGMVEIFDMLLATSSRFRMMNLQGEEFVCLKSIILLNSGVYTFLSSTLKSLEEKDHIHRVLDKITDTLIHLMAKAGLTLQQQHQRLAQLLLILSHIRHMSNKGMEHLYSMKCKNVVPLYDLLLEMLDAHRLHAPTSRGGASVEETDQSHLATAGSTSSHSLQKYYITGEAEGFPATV
# In short: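 Reporter cells (ER-alpha-bla, HEK293 background) are conditioned overnight in stripped-serum medium (2% charcoal-stripped FBS). Compound and 17beta-estradiol exposure runs 18 hr at 37C, 5% CO2.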
# [4] = molecular target: Androgen receptor (Homo sapiens) (UniProt P10275); assay: qHTS assay to identify small molecule agonists of the androgen receptor (AR) signaling pathway (AID 743036; active means well fitted activation curve with a large enough effect in the signal ratio in the repeat runs, with a control signal flat, not every such curve was filed as active; inconclusive means weak or mixed curves, or effect the other way; inactive means no such curve, though single readings can be large or run the other way; the % refers to the signal ratio; further: potency means the concentration at half of the fitted maximal effect); conditions: HEK293 AR-UAS-bla GripTite, beta-lactamase FRET ratio, 16 h; activation: at 62.4 µM (top of the series) unless noted
# In short: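 Reporter line: GeneBLAzer AR-UAS-bla-GripTite (HEK293). Steps: plate cells, 4 h rest, add compounds, 16 h at 37C, add LiveBLAzer B/G substrate, 2 h at RT, read fluorescence.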
# [5] = qHTS assay to identify small molecule antagonists of the androgen receptor (AR) signaling pathway using the MDA cell line - cell viability counter screen (AID 743041; further: nearly all actives have a fitted effect of over 45% in size; further: potency means the concentration at half of the fitted maximal effect); conditions: MDA-kb2 viability, CellTiter-Fluor, 16 h, cells co-treated with R1881 androgen agonist; viability change, negative = cytotoxic: at 70.3 µM (top of the series) unless noted
# In short: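 Same-well cytotoxicity was assessed by CellTiter-Fluor in MDA-kb2 AR-luc cells after 16 h of compound treatment under R1881 agonism.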
# [6] = molecular target: Androgen receptor (Homo sapiens) (UniProt P10275); assay: qHTS assay to identify small molecule antagonists of the androgen receptor (AR) signaling pathway using the MDA cell line (AID 743042; further: nearly all actives have a fitted effect of over 55% in size; further: potency means the concentration at half of the fitted maximal effect)
# In short: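 MDA-kb2 breast carcinoma cells carrying MMTV-luciferase (AR/GR responsive) were co-treated with compounds and the agonist R1881 for 16 h at 37C. Inhibition read as ONE-Glo luminescence; CellTiter-Fluor fluorescence measured in parallel for cytotoxicity.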
# [7] = qHTS assay to identify small molecule antagonists of the thyroid receptor (TR) signaling pathway - cell viability counter screen (AID 743064); conditions: GH3.TRE-Luc viability, CellTiter-Fluor, 24 h; activity change, negative = cytotoxic: at 70.3 µM (top of the series) unless noted; further: nearly all actives have a fitted effect of over 50% in size; further: potency means the concentration at half of the fitted maximal effect
# In short: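 Plate GH3.TRE-Luc cells; incubate 4 h at 37 °C; add compound, then T3 to 1 nM final; incubate 23.5 h; add CellTiter-Fluor; incubate 30 min at 37 °C, 5% CO2; read fluorescence.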
# [8] = molecular target: Estrogen receptor (Homo sapiens) (UniProt P03372); assay: qHTS assay to identify small molecule agonists of the estrogen receptor alpha (ER-alpha) signaling pathway using the BG1 cell line (AID 743079); conditions: BG1Luc4E2 cells, ERE-luciferase agonist, 22 h; activation: at 70.3 µM (top of the series) unless noted; further: nearly all actives have a fitted effect of over 20% in size; further: potency means the concentration at half of the fitted maximal effect
# [9] = qHTS assay to identify small molecule antagonists of the estrogen receptor alpha (ER-alpha) signaling pathway using the BG1 cell line (AID 743080; calls by dose curve;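 further: BG1 cells stimulated with 17beta-estradiol alongside compound; nearly all actives have a fitted effect of over 25% in size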; further: potency means the concentration at half of the fitted maximal effect); conditions: BG1Luc4E2 ERE-luciferase antagonist mode, luminescence; activity change, negative = inhibition: at 70.3 µM (top of the series) unless noted
# In short: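 Seeding, 24 h rest, compound transfer from DMSO, 17beta-estradiol addition, 21.5 h incubation, CellTiter-Fluor (30 min, 37 C), then ONE-Glo (30 min, room temperature): this sequence was run on BG1-Luc-4E2 reporter cells.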
# [10] = qHTS assay to identify small molecule antagonists of the estrogen receptor alpha (ER-alpha) signaling pathway using the BG1 cell line - cell viability counter screen (AID 743081); conditions: BG1Luc4E2 viability, CellTiter-Fluor, 22 h; activity change, negative = cytotoxicity: at 70.3 µM (top of the series);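 further: compound given together with 17beta-estradiol as the ER stimulus; potency means the concentration at half of the fitted maximal effect; nearly all actives have a fitted effect of over 45% in size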
# [11] = qHTS assay to identify aromatase inhibitors - cell viability counter screen (AID 743084); conditions: MCF-7 aro ERE viability, CellTiter-Fluor, 24 h; activity change, negative = cytotoxicity: at 70.3 µM (top of the series) unless noted;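 further: cells stimulated with testosterone during compound exposure; nearly all actives have a fitted effect of over 55% in size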; further: potency means the concentration at half of the fitted maximal effect
# [12] = molecular target: Peroxisome proliferator-activated receptor gamma (Homo sapiens) (UniProt P37231); assay: qHTS assay to identify small molecule agonists of the peroxisome proliferator-activated receptor gamma (PPARg) signaling pathway (AID 743094; active means well fitted activation curve with a large enough effect in the signal ratio in the repeat runs, not every such curve was filed as active; inconclusive means weak or mixed curves, or effect the other way; inactive means no such curve, though single readings can be large or run the other way; the % refers to the signal ratio; further: potency means the concentration at half of the fitted maximal effect); conditions: HEK293H PPARg-UAS-bla, beta-lactamase FRET ratio, 17 h; activation: at 57 µM (top of the series) unless noted
# Sequence of UniProt P37231 (P37231 whole entry, looked up): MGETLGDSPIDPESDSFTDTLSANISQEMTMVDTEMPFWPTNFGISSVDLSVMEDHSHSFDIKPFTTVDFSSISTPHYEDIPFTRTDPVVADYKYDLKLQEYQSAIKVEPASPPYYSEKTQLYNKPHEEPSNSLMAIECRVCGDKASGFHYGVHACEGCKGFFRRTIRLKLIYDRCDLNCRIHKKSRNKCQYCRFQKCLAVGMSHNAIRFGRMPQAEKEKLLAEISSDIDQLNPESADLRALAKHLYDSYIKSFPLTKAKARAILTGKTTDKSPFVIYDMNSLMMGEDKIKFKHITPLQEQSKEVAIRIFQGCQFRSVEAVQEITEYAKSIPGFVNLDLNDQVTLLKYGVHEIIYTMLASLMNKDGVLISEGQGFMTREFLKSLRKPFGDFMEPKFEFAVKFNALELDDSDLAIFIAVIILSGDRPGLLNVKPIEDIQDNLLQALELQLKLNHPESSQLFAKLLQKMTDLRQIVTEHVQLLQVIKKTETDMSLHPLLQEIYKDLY
# In short: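 GeneBLAzer PPARg UAS-bla HEK293H cells were plated, rested 5 h, then exposed to compounds for 17 h at 37C. Beta-lactamase activity was read by LiveBLAzer B/G FRET substrate fluorescence after 1 h at room temperature.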
# [13] = qHTS assay to identify small molecule antagonists of the estrogen receptor alpha (ER-alpha) signaling pathway - cell viability counter screen (AID 743074; calls by dose curve;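 further: HEK293 cells carrying ER-alpha-UAS-bla reporter stimulated with 17beta-estradiol; nearly all actives have a fitted effect of over 45% in size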; further: potency means the concentration at half of the fitted maximal effect)
# [14] = molecular target: Estrogen receptor (Homo sapiens) (UniProt P03372); assay: qHTS assay to identify small molecule agonists of the estrogen receptor alpha (ER-alpha) signaling pathway (AID 743075; calls by dose curve;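 further: HEK293 GripTite cells with ER-alpha and UAS-driven beta-lactamase reporter; potency means the concentration at half of the fitted maximal effect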)
# Aromatase (Homo sapiens) = Aromatase (Homo sapiens) (UniProt P11511); assay: qHTS assay to identify aromatase inhibitors (AID 743083); conditions: MCF-7 aro ERE, testosterone-driven ERE luciferase, 24 h; activity, negative = inhibition: at 70.3 µM (top of the series); further: potency means the concentration at half of the fitted maximal effect; nearly all actives have a fitted effect of over 55% in size
# Sequence of UniProt P11511 (P11511 whole entry, looked up): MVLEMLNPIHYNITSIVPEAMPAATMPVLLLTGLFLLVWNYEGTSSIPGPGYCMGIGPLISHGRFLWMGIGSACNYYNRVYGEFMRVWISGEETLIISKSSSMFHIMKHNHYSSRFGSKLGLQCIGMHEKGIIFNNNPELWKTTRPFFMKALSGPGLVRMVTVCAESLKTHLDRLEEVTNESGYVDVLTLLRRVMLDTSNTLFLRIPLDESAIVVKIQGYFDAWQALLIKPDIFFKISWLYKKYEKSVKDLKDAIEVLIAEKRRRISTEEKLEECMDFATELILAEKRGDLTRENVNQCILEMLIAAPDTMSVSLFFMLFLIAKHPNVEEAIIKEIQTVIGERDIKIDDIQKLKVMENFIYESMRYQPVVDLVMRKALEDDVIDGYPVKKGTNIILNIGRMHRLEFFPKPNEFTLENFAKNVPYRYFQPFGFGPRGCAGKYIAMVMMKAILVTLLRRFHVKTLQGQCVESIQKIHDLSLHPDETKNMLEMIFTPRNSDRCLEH
# [15] = test system: thyroid hormone receptor (rat, GH3 cells); assay: qHTS assay to identify small molecule agonists of the thyroid receptor (TR) signaling pathway (AID 743066; calls by dose curve; further: on the % scale 0 is the no-effect control and ±100 the full control effect); conditions: GH3.TRE-Luc cells, TR agonist luciferase, 24 h; activation: at 83.9 µM (top of the series) unless noted
# [16] = molecular target: Aryl hydrocarbon receptor (Homo sapiens) (UniProt P35869); assay: qHTS assay to identify small molecule that activate the aryl hydrocarbon receptor (AhR) signaling pathway (AID 743085); further: nearly all actives have a fitted effect of over 15% in size; further: potency means the concentration at half of the fitted maximal effect
# Sequence of UniProt P35869 (P35869 whole entry, looked up): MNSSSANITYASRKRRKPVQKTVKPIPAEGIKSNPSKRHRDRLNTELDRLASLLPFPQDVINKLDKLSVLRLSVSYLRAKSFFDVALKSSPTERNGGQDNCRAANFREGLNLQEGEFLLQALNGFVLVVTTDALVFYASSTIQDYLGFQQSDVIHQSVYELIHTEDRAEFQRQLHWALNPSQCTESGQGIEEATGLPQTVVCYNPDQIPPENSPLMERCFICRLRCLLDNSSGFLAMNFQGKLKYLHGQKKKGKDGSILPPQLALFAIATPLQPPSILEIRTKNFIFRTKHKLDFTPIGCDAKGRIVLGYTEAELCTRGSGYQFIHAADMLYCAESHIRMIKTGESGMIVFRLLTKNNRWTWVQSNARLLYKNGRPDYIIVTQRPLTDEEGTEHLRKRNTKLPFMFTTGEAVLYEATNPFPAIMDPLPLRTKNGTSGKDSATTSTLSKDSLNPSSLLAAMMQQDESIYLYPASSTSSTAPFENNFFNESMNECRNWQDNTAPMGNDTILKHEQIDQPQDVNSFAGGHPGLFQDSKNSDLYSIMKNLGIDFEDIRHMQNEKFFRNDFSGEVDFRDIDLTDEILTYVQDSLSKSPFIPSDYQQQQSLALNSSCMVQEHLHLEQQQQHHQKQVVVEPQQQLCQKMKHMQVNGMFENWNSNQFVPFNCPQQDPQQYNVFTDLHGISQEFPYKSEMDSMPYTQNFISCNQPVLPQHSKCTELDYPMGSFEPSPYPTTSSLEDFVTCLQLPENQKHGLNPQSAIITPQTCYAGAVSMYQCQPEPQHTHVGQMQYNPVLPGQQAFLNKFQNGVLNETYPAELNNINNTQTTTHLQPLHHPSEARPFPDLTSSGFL
# In short: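 Steps: seed HepG2-AhR-luc cells; allow 5 h at 37C; pin-transfer test compound or vehicle; incubate 24 h at 37C; add viability dye (30 min, 37C) and read fluorescence; add luciferase substrate (30 min, RT) and read luminescence.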
# [17] = qHTS assay to identify small molecule that activate the aryl hydrocarbon receptor (AhR) signaling pathway - cell viability counter screen (AID 743086); further: nearly all actives have a fitted effect of over 45% in size; further: potency means the concentration at half of the fitted maximal effect
# In short: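 HepG2-AhR-luc (HG2L7.5c1) cells, 4000/well, treated 24 h at 37 C with compound; viability measured as CellTiter-Fluor fluorescence after 30 min in the same wells as the luciferase read.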
# [18] = molecular target: Androgen receptor (Homo sapiens) (UniProt P10275); assay: qHTS assay to identify small molecule agonists of the androgen receptor (AR) signaling pathway using the MDA cell line (AID 743040; further: potency means the concentration at half of the fitted maximal effect; nearly all actives have a fitted effect of over 20% in size); conditions: MDA-kb2 AR-luc cells, MMTV luciferase, 16 h; activity change: at 95 µM (top of the series), stronger effect = higher value
# In short: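 Human breast carcinoma MDA-kb2 reporter cells (MMTV-luc, AR/GR elements) were treated for 16 h at 37C in 0% CO2 following a 5 h settling period. Signal was quantified by ONE-Glo luminescence.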
# Tags describe the fitted curve by direction and shape or compound fluorescence and quenching.
smiles,measurement,setting,value
O=C/C=C/c1ccco1,Potency,[1],inactive
same,Potency,[2],inactive
C=CCOC(=O)c1ccccc1N,Potency,[1],inactive
same,Potency,[3],inactive
CC1(C)CC/C(=C/c2ccc(Cl)cc2)C1(O)Cn1cncn1 (centres undefined),activation,[4],inconclusive: 13.5%
same,"viability change, negative = cytotoxic",[5],inconclusive: 31.3%
same,Potency,[6],inconclusive: 16.8 µM [inhibitor]
same,Potency,[7],"inconclusive: 12.2 µM [rising, partial curve, poor fit]"
same,Potency,[2],active: 54.2 µM
same,Potency,[8],inactive
same,Potency,[9],inactive
same,Potency,[10],"inconclusive: 27.3 µM [cytotoxic, single point]"
same,Potency,[11],inactive
same,activation,[12],inconclusive: -13.7%
NS(=O)(=O)C(F)(F)C(F)(F)C(F)(F)C(F)(F)C(F)(F)C(F)(F)C(F)(F)C(F)(F)F,Potency,[4],"inconclusive: 15.5 µM [activator, partial curve]"
same,"viability change, negative = cytotoxic",[5],inconclusive: -38.1% [cytotoxic]
same,Potency,[3],"inconclusive: 24.5 µM [inhibitor, partial curve]"
same,Potency,[13],"inconclusive: 0.977 µM [cytotoxic, partial curve, poor fit]"
same,Potency,[14],active: 43.6 µM [inconclusive]
same,Potency,[9],"inconclusive: 68.6 µM [falling, single point]"
same,Potency,[10],"inconclusive: 61.1 µM [cytotoxic, single point]"
II,activation,[4],inconclusive: 25.3%
same,Potency,[6],inactive
same,Potency,[13],inactive
same,Potency,Aromatase (Homo sapiens),"inconclusive: 24.3 µM [inhibitor, partial curve, poor fit]"
COc1ccc(Cc2nccc3cc(OC)c(OC)cc23)cc1OC,"activity change, negative = inhibition",[1],inconclusive: -24.5% [at 27 µM]
same,Potency,[5],"inconclusive: 10.6 µM [cytotoxic, partial curve, poor fit]"
same,Potency,[2],"inconclusive: 9.02 µM [inhibitor, partial curve]"
same,Potency,[15],inactive
same,Potency,[16],"inconclusive: 12.7 µM [activator, partial curve, poor fit]"
same,Potency,[17],"inconclusive: 12.7 µM [falling, single point]"
O=C(NC(=O)c1ccccc1Cl)Nc1ccc(OC(F)(F)F)cc1,activation,[4],inconclusive: 31.3%
same,Potency,[6],inactive
same,Potency,[13],inactive
same,Potency,[16],"inconclusive: 24.3 µM [activator, partial curve, poor fit]"
same,Potency,[17],inactive
CCCCC(O)(Cn1cncn1)c1ccc(Cl)cc1Cl (centres undefined),Potency,[1],active: 17.4 µM
same,Potency,[6],"inconclusive: 68.5 µM [inhibitor, single point]"
same,Potency,[7],"inconclusive: 68.5 µM [cytotoxic, single point]"
same,activation,[15],inconclusive: -8.61% [phenotype inactive]
same,Potency,[3],inconclusive: 54.9 µM [single point]
same,Potency,[8],inconclusive: 61.1 µM [inhibitor]
same,Potency,[9],active: 54.4 µM
same,Potency,[10],"inconclusive: 12.2 µM [rising, partial curve, poor fit]"
same,Potency,[11],active: 68.5 µM
same,Potency,[17],"inconclusive: 68.5 µM [falling, single point]"
CC(C)CCCCCCOC(=O)c1ccccc1C(=O)OCCCCCCC(C)C,"activity change, negative = inhibition",[1],inconclusive: -22.6% and inconclusive: -39.2% and inconclusive: -37.5%
same,Potency,[7],inactive
same,Potency,[16],inactive
same,Potency,[17],"inconclusive: 68.7 µM [falling, single point]"
CCC(=O)Nc1ccc(Cl)c(Cl)c1,Potency,[1],active: 22.3 µM and active: 24.5 µM
same,Potency,[6],"inconclusive: 70 µM [inhibitor, single point] and active: 48.6 µM"
same,Potency,[2],"inconclusive: 30.6 µM [inhibitor, partial curve]"
FC(Cl)(Cl)Cl,Potency,[4],active: 12.3 µM
same,Potency,[18],active: 1.36 µM
same,Potency,[7],inactive
same,Potency,[12],"inconclusive: 61.5 µM [activator, single point]"
O=C(NC(=O)c1c(F)cccc1F)Nc1cc(Cl)c(OC(F)(F)C(F)C(F)(F)F)cc1Cl (centres undefined),activation,[4],inconclusive: 30.5%
same,Potency,[6],"inconclusive: 13.3 µM [inhibitor, partial curve] and inconclusive: 27.3 µM [inhibitor, single point]"
same,Potency,[7],"inconclusive: 11.9 µM [cytotoxic, partial curve, poor fit]"
same,"activity, negative = inhibition",[3],inconclusive: 36.4%
same,Potency,[13],"inconclusive: 0.0245 µM [cytotoxic, full curve]"
same,Potency,[8],"inconclusive: 4.22 µM [activator, partial curve, poor fit] and inactive"
same,"activity change, negative = inhibition",[9],inconclusive: -21.6%
